Measured values as given in the supplement of paper PMC5919970.
Where a name gives a salt, the structure may show the parent alone. Whole data set: some 2,000 compounds, median “fractional viability relative to vehicle” near 0.91, cut for the lowest 2% near 0.045. The list shows a part of the results.

System: TYKNU
Assay: fractional viability relative to vehicle; TYKNU is a high-grade serous ovarian cancer line; higher = less growth inhibition
Settings: 72 h
How it was run: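 TYKNU control cells or lentiCRISPRv2 knockout derivatives were plated at 500 cells per well in duplicate into drug-stamped 384-well plates holding a ~2100-compound library at 2 or 10 μM. Culture was in RPMI 1640 with 10% FBS at 37 °C in 5% CO2, with 72 h of drug treatment. Viability was measured by Cell Titer Glo luminescence, and the averaged duplicate treatment wells were normalised to duplicate control wells at the same plate position.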

[1] = 2uM, genotype: DNM1L knockout (sgDNM1L #1)
[2] = 2uM, genotype: sgCTRLA1 (non-targeting control)
[3] = 10uM, genotype: DNM1L knockout (sgDNM1L #1)
[4] = 10uM, genotype: sgCTRLA1 (non-targeting control)

Compound | fractional viability [1] | fractional viability [2] | fractional viability [3] | fractional viability [4]
CC(=O)Nc1cccc2c1c(Sc1ccc(Cl)cc1)c(C)n2CC(=O)O | 0.843 | 1.24 | 0.838 | 1.17
Nc1ncn([C@@H]2O[C@H](CO)[C@@H](O)[C@H]2O)c(=O)n1 [Azacitidine] | 1.08 | 1.12 | 1.12 | 1.03
CC(COc1ccccc1)N(CCCl)Cc1ccccc1 (configuration not stated) [Phenoxybenzamine HCl] | 0.953 | 1.02 | 0.516 | 0.798
CCCNC(C)C(=O)Nc1ccccc1C (configuration not stated) [Prilocaine] | 1.09 | 1.08 | 1.05 | 1.15
Cc1c(-c2ccnn2C)cc(C(=O)NCc2ccc(S(C)(=O)=O)cn2)c(=O)n1-c1cccc(C(F)(F)F)c1 [Alvelestat (AZD9668)] | 0.815 | 1.07 | 0.719 | 0.959
CC(C)(C)Cn1c(N)nc2ccc(-c3[nH]c(C(C)(C)C)nc3-c3ccc(F)cc3)nc21 | 0.941 | 0.92 | 0.684 | 0.879
CCCN[C@H]1CCc2nc(N)sc2C1 [Pramipexole] | 0.968 | 1.01 | 0.773 | 0.919
COc1ccc(C(=O)CC2(O)C(=O)Nc3c(Cl)ccc(Cl)c32)cc1 (configuration not stated) | 0.264 | 0.243 | 0.175 | 0.186
O=C(NC1CCN(CCCCC2(C(=O)NCC(F)(F)F)c3ccccc3-c3ccccc32)CC1)c1ccccc1-c1ccc(C(F)(F)F)cc1 [Lomitapide Mesylate] | 0.573 | 0.79 | 0.0435 | 0.0328
CCOC(=O)c1ccc(OC(=O)CCCCCNC(=N)N)cc1 [Gabexate Mesylate] | 1.03 | 1.16 | 0.907 | 1.03
Clc1cccc(-c2nnnn2Cc2cccnc2)c1Cl | 0.755 | 0.927 | 0.755 | 0.73
COc1cccc(-c2ccc(NC(=O)C3=C(C(=O)O)CCC3)c(F)c2)c1 [Vidofludimus] | 0.738 | 1.09 | 0.325 | 0.468
Cc1cc(=O)oc2cc(O)ccc12 [4-Methylumbelliferone (4-MU)] | 0.943 | 1.2 | 0.901 | 1.1
C/C=C1/[C@H](O[C@@H]2O[C@H](CO)[C@@H](O)[C@H](O)[C@H]2O)OC=C(C(=O)OC)[C@H]1CC(=O)OCCc1ccc(O)c(O)c1 [Oleuropein] | 0.773 | 0.978 | 0.843 | 0.774
O=c1c(-c2ccc(O)cc2)coc2c([C@@H]3O[C@H](CO)[C@@H](O)[C@H](O)[C@H]3O)c(O)ccc12 [Puerarin] | 1.03 | 1.11 | 1.03 | 1.14
Cc1cc(C)cc(C(=O)NOCCCCCC(=O)NO)c1 | 0.213 | 0.312 | 0.0689 | 0.0801
Cc1cc([C@@H](C)Nc2ccccc2C(=O)O)c2nc(N3CCOCC3)cc(=O)n2c1 | 1.08 | 1.03 | 0.718 | 0.926
COCCOC(=O)C1=C(C)NC(C)=C(C(=O)OC/C=C/c2ccccc2)C1c1cccc([N+](=O)[O-])c1 (configuration not stated) [Cilnidipine] | 0.972 | 1.13 | 0.596 | 1.01
CCOc1nc2cccc(C(=O)O)c2n1Cc1ccc(-c2ccccc2-c2noc(=O)[nH]2)cc1 [Azilsartan] | 1.2 | 1.03 | 0.93 | 0.962

Compound | fractional viability [1] | fractional viability [2] | fractional viability [3] | fractional viability [4]
COc1cc2nccc(Oc3ccc(NC(=O)C4(C(=O)Nc5ccc(F)cc5)CC4)cc3)c2cc1OC | 1.15 | 1.17 | 0.615 | 0.64
O=C(O)/C=C/c1ccc(Cn2ccnc2)cc1 [Ozagrel] | 0.939 | 1.1 | 0.816 | 1.07
O=C(O)/C=C/c1ccc(Cn2ccnc2)cc1 [Ozagrel HCl] | 0.923 | 1.22 | 0.926 | 1.1
CCCc1nc(C)c2c(=O)nc(-c3cc(S(=O)(=O)N4CCN(CC)CC4)ccc3OCC)[nH]n12 [Vardenafil HCl Trihydrate] | 0.995 | 1.1 | 0.774 | 1.05
CNC(=O)c1cc(COc2nnc(Nc3ccc(Cl)cc3)c3ccoc23)ccn1 [Telatinib] | 0.895 | 1.19 | 0.707 | 0.949
Oc1ccc(OCc2ccccc2)cc1 [Monobenzone] | 1.06 | 1.17 | 0.777 | 0.948
C[C@H]1C[C@H]2[C@@H]3CCC4=CC(=O)C=C[C@]4(C)[C@@]3(F)[C@@H](O)C[C@]2(C)[C@@]1(O)C(=O)CO [Betamethasone] | 1.25 | 1.06 | 1.23 | 1.08
CC(C)(Cc1ccc2ccccc2c1)NC[C@@H](O)COc1cccc(Cl)c1C#N | 0.854 | 1.1 | 0.585 | 0.0354
CCN1CCN(C(=O)N[C@@H](C(=O)N[C@@H]2C(=O)N3C(C(=O)O)=C(CSc4nnnn4C)CS[C@H]23)c2ccc(O)cc2)C(=O)C1=O [Cefoperazone] | 0.916 | 1.1 | 0.775 | 0.991
O=C(c1cn(Cc2cncn2Cc2ccc(Br)cc2)cc1-c1cccc2ccccc12)N1CCOCC1 | 0.241 | 0.344 | 0.248 | 0.224
CN(C)CCOc1ccc(/C(=C(/CCCl)c2ccccc2)c2ccccc2)cc1 [Toremifene Citrate] | 1.14 | 1.12 | 0.86 | 1.02
Cc1ccc(Cl)c(Nc2ccccc2C(=O)O)c1Cl [Meclofenamate Sodium] | 0.952 | 1.02 | 0.784 | 0.978
O=C(NCCO[N+](=O)[O-])c1cccnc1 [Nicorandil] | 0.973 | 1.02 | 0.931 | 0.953
COc1cc(O)c(CC=C(C)C)c(O)c1C(=O)/C=C/c1ccc(O)cc1 [Xanthohumol] | 0.939 | 0.888 | 0.453 | 0.423
Cc1cc(/N=N/c2ccc(S(=O)(=O)Nc3ccccn3)cc2)c(N)cc1O | 0.817 | 1.02 | 0.445 | 0.572
COc1ccccc1S(=O)(=O)Nc1ccc2c(c1)CN(C)C(=O)N2 | 0.871 | 0.896 | 0.502 | 0.699
Cc1nnc(NS(=O)(=O)c2ccc(N)cc2)s1 [Sulfamethizole] | 1.09 | 0.963 | 0.897 | 0.995
FC(F)c1nc2ccccc2n1-c1nc(N2CCOCC2)nc(N2CCOCC2)n1 | 0.749 | 0.873 | 0.406 | 0.437
C[C@@H]1C[C@H]2[C@@H]3CCC4=CC(=O)C=C[C@]4(C)[C@@]3(F)[C@@H](O)C[C@]2(C)[C@@]1(O)C(=O)CO [Dexamethasone (DHAP)] | 1.07 | 1.13 | 1.03 | 1.1
